# According to the supplement of paper PMC3334620:
# In all, about 33,000 sequences were measured (“E-score (-0.5 to 0.5)”: median about -0.036, highest 2% from about 0.37 on). This is one part of the list.
# Target: T1, Yer064c (UniProt P40041)
# T1 sequence: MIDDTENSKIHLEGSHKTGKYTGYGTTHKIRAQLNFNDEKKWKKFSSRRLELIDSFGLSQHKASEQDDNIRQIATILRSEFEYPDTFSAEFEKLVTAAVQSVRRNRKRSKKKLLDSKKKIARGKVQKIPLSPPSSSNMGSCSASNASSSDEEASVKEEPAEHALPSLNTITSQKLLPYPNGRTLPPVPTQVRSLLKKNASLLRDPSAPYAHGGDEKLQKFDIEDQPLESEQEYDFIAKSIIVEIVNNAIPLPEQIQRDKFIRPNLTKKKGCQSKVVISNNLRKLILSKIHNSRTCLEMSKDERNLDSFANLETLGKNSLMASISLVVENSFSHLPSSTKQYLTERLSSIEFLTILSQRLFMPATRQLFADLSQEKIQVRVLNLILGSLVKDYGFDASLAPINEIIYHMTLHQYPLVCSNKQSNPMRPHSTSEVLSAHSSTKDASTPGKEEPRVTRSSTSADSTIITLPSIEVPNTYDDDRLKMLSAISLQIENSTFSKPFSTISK
# Assay: PBM E-score (8-mer binding enrichment) (E-score (-0.5 to 0.5)); higher = stronger / more preferred TF binding; most listed sequences are background and not binding sites
# Settings: protein concentration: 200 nM; construct: GST-full length
# Procedure, shortened: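 Universal all-10-mer Agilent arrays, fresh or stripped once, were converted to double-stranded form by primer extension. GST-tagged yeast transcription factors from PURExpress in vitro transcription/translation, full-length or DNA-binding domain only, were applied at about 100-200 nM and detected with fluorescent anti-GST. After masliner normalisation, the Universal PBM Analysis Suite scored each ungapped eight-base word together with its reverse complement by E-score.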
row,Sequence,PBM E-score
1,AACTCTGA,0.186
2,AGATCTTG,-0.125
3,ACTAGGAC,0.088
4,GAAAGTGA,0.161
5,AACCAGAA,0.118
6,AGGCATAA,-0.109
7,CTGCACTA,-0.103
8,CAATATAG,0.0715
9,CAGAAAGC,-0.00397
10,ACGTCGAA,-0.00381
11,GGTTTAAA,0.123
12,AAGTCCGT,-0.0735
13,GTGCACAA,-0.106
14,ATGGTCGG,-0.0135
15,AGTACCGC,-0.217
16,ATTGTCTG,0.0875
17,CTGGGGAA,-0.114
18,TAATTGTA,0.191
19,AGAACCTC,-0.301
20,CCGTAGCG,-0.135
21,ATCATCAC,0.349
22,ACTTCGCA,0.025
23,ACACCGTA,-0.131
24,CAGGTAGC,-0.0547
25,CCTCATCC,-0.323

row,Sequence,PBM E-score
1,CTACGGGC,-0.419
2,TCAAGTGA,0.235
3,TGGGAAAA,-0.21
4,CAATGCGC,-0.139
5,TCTCAGAA,0.178
6,AAGCATTA,0.0134
7,AATATTGA,0.239
8,CCCTACCC,-0.156
9,GACGTGCA,-0.077
10,AGGCCTCG,-0.184
11,AATATTCG,-0.197
12,AGATGACT,0.487
13,GCAAACGC,-0.259
14,CGACGCCG,0.0399
15,AAAAGAGG,-0.0922
16,ATGCTCCA,-0.216
17,GAATTCGC,-0.0486
18,AAGGACGA,-0.0247
19,GACGTATC,-0.332
20,CAATCTCG,-0.0069
21,ACCGGGCC,-0.125
22,ACCGACAC,0.114
23,AGGTATAC,0.0838
24,GCTTTGAC,0.0924
25,TAGTAGGA,0.0548

row,Sequence,PBM E-score
1,TCCAACAA,0.11
2,ACTAACAA,0.237
3,CTCCATTA,-0.127
4,CGTGCCAG,-0.123
5,AAGGTGAT,0.176
6,AGGCAGCA,-0.02
7,CCTTAGAC,0.063
8,ACCACAAA,0.0622
9,CCGACGAC,0.109
10,AATATAAT,0.0228
11,ATCGTCCC,-0.18
12,AAGCGTCG,-0.218
13,GTTGCCGA,-0.0746
14,AACCTCGC,-0.0768
15,CCCTCCAG,-0.413
16,GACCGAGA,0.00247
17,CGTCTTCC,-0.0994
18,GCCATCAA,-0.0742
19,TAACTTGA,0.298
20,CCTACGCA,-0.0459
21,AGCCTACT,-0.0484
22,AGTCGCTC,0.382
23,ATCTGAAC,0.0354
24,ACTTCTGG,-0.123
25,CAGCATTC,-0.155

row,Sequence,PBM E-score
1,CATGACAC,0.11
2,CGATGCTA,-0.124
3,CGTGCGCA,-0.144
4,CAGGGTGA,0.123
5,CCCTAAGC,-0.311
6,CCAACATA,0.121
7,CAAGTCTG,-0.0223
8,GTTCGGTA,0.108
9,TGGCCGAA,-0.0951
10,CTCTCATA,0.187
11,CGTCTACA,0.00611
12,AACGGATG,-0.0159
13,GTTACATA,-0.0777
14,ACTTTGTG,0.137
15,ACGCGGGA,-0.198
16,GCCTGCAC,-0.167
17,CGCCACGA,-0.0758
18,ACCAAATA,0.041
19,ACGATGGA,0.073
20,AGGGGATG,-0.153
21,AAGTAGGC,-0.248
22,AGATGCCG,-0.214
23,CGGCCCAA,-0.293
24,CGGAACCA,0.103
25,ATTGATGA,0.312

row,Sequence,PBM E-score
1,TTAGTAAA,0.13
2,ACCGCGAG,0.0163
3,GACTAGCC,0.322
4,TCTATAAA,0.101
5,CCCATGCA,-0.0198
6,ACAACTAT,0.0891
7,CATCTTAC,0.0433
8,AGCATAGG,-0.197
9,ACACTAGA,0.0141
10,CGGATATC,-0.0492
11,ATAGTCGA,0.249
12,TACTTTAA,-0.0478
13,ACAAGGGG,-0.186
14,ACCTATCG,-0.16
15,TTCACGAA,0.03
16,ATGGCTTA,0.167
17,ATCAAGAT,0.157
18,GGCCGATA,-0.159
19,AGGGCTTC,-0.236
20,GCCATTAC,-0.216
21,CCAATATA,-0.0791
22,CATTCCGG,-0.233
23,CAGGCCCC,-0.374
24,GCTATAGC,-0.246
25,CCCCAGTC,0.0336

row,Sequence,PBM E-score
1,CAGCAATA,-0.0433
2,AAGCTAGG,0.0152
3,GCCCTTTA,-0.229
4,GCTTGTTA,-0.186
5,ACCACCAT,-0.0134
6,AATAAGCT,-0.0669
7,GATTTAAA,0.224
8,CGTCTTGC,-0.24
9,TCGGGAGA,0.136
10,AGAATCCG,0.0213
11,AATCTTCT,0.201
12,CGACTAGC,0.297
13,ATGCCCCA,-0.00807
14,CTGTCTTA,-0.0858
15,AGACACGG,0.118
16,CAAGGAGG,-0.308
17,GGCACCCC,-0.215
18,AGCCGAGA,0.0772
19,AACAGAGC,-0.158
20,CTGCGAAG,-0.115
21,CTGTGACA,0.191
22,ATAGACGC,-0.203
23,ATCAGGAA,0.00077
24,CCGCTGCA,-0.145
25,AACATCTG,-0.23

row,Sequence,PBM E-score
1,CAACAACC,0.0259
2,CGAGCCAC,-0.107
3,CTAAGTTA,0.204
4,AAGATCAT,0.134
5,CCTCTGAC,0.147
6,TCCTCAGA,0.0903
7,CGCGCAAG,0.0708
8,ACATTTTG,0.0136
9,GTACGCTA,-0.197
10,ACAGAAGA,-0.139
11,ACCCACAT,0.124
12,CCGAATAA,0.101
13,CCACAAAG,-0.0168
14,ACGGTGTG,-0.108
15,CGTCTCCC,-0.223
16,AACACGCA,-0.0269
17,AGTACAAT,0.182
18,AGACTTGA,0.217
19,GCATGCGC,-0.261
20,CATGCCCC,0.155
21,TGTTGGAA,0.099
22,GGCTCAAC,0.0647
